These results are taken from article PMC4336329 (PLoS ONE, 2015).

Molecules are shown by their SMILES. Screen size: about 310,000 compounds; about 14,000 (4.5%) showed an effect of 50% or more. Effects have a minus sign here. Some of the results follow.
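Further: peak tail current of the secondary pulse compared with the same well before compound.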

Chain of human ether-à-go-go-related gene (hERG) potassium channel (Q12809 whole entry, looked up): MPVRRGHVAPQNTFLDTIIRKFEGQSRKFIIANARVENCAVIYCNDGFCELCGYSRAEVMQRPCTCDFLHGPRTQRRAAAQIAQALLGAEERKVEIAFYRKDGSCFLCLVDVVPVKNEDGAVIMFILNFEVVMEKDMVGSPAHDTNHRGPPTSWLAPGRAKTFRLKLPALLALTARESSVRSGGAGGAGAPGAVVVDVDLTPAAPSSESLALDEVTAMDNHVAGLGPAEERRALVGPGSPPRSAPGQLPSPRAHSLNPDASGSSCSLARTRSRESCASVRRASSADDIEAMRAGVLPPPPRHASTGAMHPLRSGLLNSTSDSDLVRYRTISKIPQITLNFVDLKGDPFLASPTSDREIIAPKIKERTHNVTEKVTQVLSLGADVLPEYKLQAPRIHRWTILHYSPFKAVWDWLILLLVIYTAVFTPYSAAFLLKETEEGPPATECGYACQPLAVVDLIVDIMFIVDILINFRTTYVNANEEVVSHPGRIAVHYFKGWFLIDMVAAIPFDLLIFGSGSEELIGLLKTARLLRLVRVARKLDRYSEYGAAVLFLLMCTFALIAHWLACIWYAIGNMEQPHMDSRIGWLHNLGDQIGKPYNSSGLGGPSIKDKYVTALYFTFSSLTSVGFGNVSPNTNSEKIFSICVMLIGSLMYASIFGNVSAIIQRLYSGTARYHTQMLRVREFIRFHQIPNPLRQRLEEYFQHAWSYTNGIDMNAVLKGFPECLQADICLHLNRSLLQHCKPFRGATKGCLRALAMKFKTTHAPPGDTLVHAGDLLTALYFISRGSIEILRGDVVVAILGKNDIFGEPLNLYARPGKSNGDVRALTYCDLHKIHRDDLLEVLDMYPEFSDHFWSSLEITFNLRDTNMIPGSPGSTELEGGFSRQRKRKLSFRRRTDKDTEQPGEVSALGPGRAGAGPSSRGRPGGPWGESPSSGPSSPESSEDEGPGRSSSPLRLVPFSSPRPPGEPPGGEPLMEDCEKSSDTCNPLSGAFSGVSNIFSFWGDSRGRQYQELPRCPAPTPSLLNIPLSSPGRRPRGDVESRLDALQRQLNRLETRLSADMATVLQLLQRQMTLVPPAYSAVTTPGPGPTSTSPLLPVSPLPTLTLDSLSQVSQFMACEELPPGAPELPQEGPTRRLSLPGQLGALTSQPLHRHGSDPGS

This experiment concerns the target human ether-à-go-go-related gene (hERG) potassium channel (human, UniProt Q12809). Kind of experiment: primary screen, population patch clamp on CHO cells stably expressing hERG.
As for `O=C(O)C(=O)O.OC(COC1CCCCC1)C[NH+]1CCCCC1` (stereo not shown), the “hERG current change (%, negative = inhibition) at 10uM” value is recorded as 1.4%.
The value for `O=C(O)c1ccc(NC2=C(n3nnc4ccccc43)C(=O)c3ccccc3C2=O)cc1` was 3.97%.
The result for `CC1CC(C)CN(CCCNC(=O)c2ccc3c(SCC(=O)O)c4c(nc3c2)CCC4)C1` (stereo not shown) reads 8.49%; that for `CC(C)CC(=O)NN(C)c1nc(-c2ccccc2)nnc1C(F)(F)F`, 6.78%; that for `O=C(c1ccc(OC2CCN(C(=O)c3cccnc3)CC2)cc1)N1CCCCCC1`, 4.69%.
With `COc1ccc(/C=C/C(=O)C2(O)CCCCC2)cc1`, the “hERG current change (%, negative = inhibition) at 10uM” value was -16.9%.
The value for `O=C(NCCN1CCCCC1)Nc1ccc([N+](=O)[O-])cc1` was -41.4%; that for `O=C(O)c1cc(-c2ccc(-c3c(-c4ccc5c(c4)OCO5)noc3-c3ccsc3)cc2)nc2ccccc12` was 2.1%; that for `CCC(C)[C@H]1COCCS(=O)(=O)N1Cc1ccccc1` (stereo partly shown) was 5.2%.
As to `Cc1cccc(C(C(=O)NC2CCCC2)N(Cc2cccnc2)C(=O)c2csnn2)c1` (stereo not shown), the “hERG current change (%, negative = inhibition) at 10uM” value is 1.91%.
Consider `COC(=O)c1cc(Cl)c(NC(=O)/C=C/c2ccc(Cl)cc2Cl)cc1OC`, for which the “hERG current change (%, negative = inhibition) at 10uM” value is recorded as -10.9%.
The result for `O=C(NCc1ccccn1)c1ccc(OC2CCN(Cc3ccccc3O)CC2)cc1` reads -1.17%; that for `COc1ccc(Cl)cc1N(CC(=O)N1CCCC1)S(C)(=O)=O`, 8.82%.
`COc1ccc(CCNCc2ccc(SC)cc2)cc1`: the “hERG current change (%, negative = inhibition) at 10uM” value is recorded as -73.2%.
The result for `Cc1onc(-c2ccccc2)c1C(=O)N1CCOC12CCN(c1cccc(F)n1)CC2` reads -8.68%; that for `C=CCNC(=O)C(C(=O)OCC)C1CCCCC1` (stereo not shown), -53.3%; that for `Cn1c(CN2CCCCC2)nc2cc(NC(=O)c3cccc(Br)c3)ccc21`, -63.3%.
The result for `O=c1[nH]c(=O)c2nc3ccccc3nc2[nH]1` reads 3.76%; that for `O=C(CCN1C(=O)S/C(=C\c2ccccc2)C1=O)Nc1ccc(S(=O)(=O)Nc2nccs2)cc1`, 7.01%; that for `COc1ccc(N2CC(O)=C(c3nc4ccccc4s3)C2=N)c(OC)c1`, -23%.
With `COc1ccc(Cl)cc1NC(=O)C(C)N(C)Cc1cccc(Cl)c1Cl` (stereo not shown), the “hERG current change (%, negative = inhibition) at 10uM” value is -14.5%.
The result for `O=[N+]([O-])c1cccc(CN2CCN(c3ncccn3)CC2)c1` reads -1.26%.
The value for `OC1(c2cccs2)CN(c2ccccc2)C2=[N+]1CCCC2.[Br-]` (stereo not shown) was 4.63%.
The value for `CC1(CCC(=O)N2CCCC(Nc3ccc(F)cc3)C2)CC1` (stereo not shown) was -2.6%; that for `COc1ccc(OCC(=O)Nc2ccc3c(c2)CCC3)cc1` was -19.9%; that for `Cc1ccc(Nc2cnn(C34CC5CC(CC(CC(=O)O)(C5)C3)C4)c(=O)c2Cl)c(Cl)c1` was 20.1%.
Consider `S=C(NCCCN1CCOCC1)Nc1ccc(Cl)cc1`, for which the “hERG current change (%, negative = inhibition) at 10uM” value is -17.2%.
As to `CN(CC(=O)Nc1ccc(S(=O)(=O)N(C)C)cc1)Cc1ccc(C(F)(F)F)cc1`, the “hERG current change (%, negative = inhibition) at 10uM” value is 1.53%.
The value for `CCN(CC(=O)Nc1ccc(NC(C)=O)cc1)C(=O)Cc1coc2cc(C)c(C)cc12` was -16%; that for `Cc1cc([N+](=O)[O-])ccc1N=Nc1c(N)[nH]n(-c2ccccc2)c1=O` was 14.1%.
`Cc1c(NC(=O)COC(=O)c2ncc(Cl)c(Cl)c2Cl)c(=O)n(-c2ccccc2)n1C`: the “hERG current change (%, negative = inhibition) at 10uM” value came to 16%.
Take `COc1ccc2c(c1)CCC1=C2NC(=S)NC1c1ccc(N(C)C)cc1` (stereo not shown): the “hERG current change (%, negative = inhibition) at 10uM” value is given as 11%.
The value for `CCOc1ccc(OCCCC(=O)O)cc1` was -15%.
For `Cc1ccc(OCC(=O)Nc2ccc3c(c2)OCO3)c([N+](=O)[O-])n1`, the “hERG current change (%, negative = inhibition) at 10uM” value was -7.74%.
As to `CCn1c(SCC(=O)N2c3ccccc3CCc3ccccc32)nnc1-c1ccc(OC)cc1`, the “hERG current change (%, negative = inhibition) at 10uM” value is -7.97%.
The result for `O=[N+]([O-])c1ccc(NC(=S)N2CCN(c3ccccn3)CC2)cc1` reads -6.23%.
In the case of `CCOc1ccc(NC(=S)NCCCc2ccccc2)cc1`, the “hERG current change (%, negative = inhibition) at 10uM” value is -12.4%.
Turning to `Cc1ccc(CNC(=O)CSc2c3c(nc4ccc(Cl)cc24)CCCC3)o1`, the “hERG current change (%, negative = inhibition) at 10uM” value is recorded as -0.428%.
The result for `COCCOC(=O)/C(C#N)=C/c1cn(Cc2ccccc2)nc1-c1cccnc1` reads -67.1%; that for `COC(=O)C1=C(c2cc3ccccc3o2)C[C@@H]2CC[C@H]1N2C(=O)NCCCOC(C)C`, -9.32%; that for `CCOCc1nnc(NC(=O)COC)s1`, -2.04%.
On to `Cc1ccc(S(=O)(=O)CCC(=O)c2ccc(O)cc2O)cc1`, for which the “hERG current change (%, negative = inhibition) at 10uM” value is recorded as -25.1%.
The result for `CC(C)(C)c1ccc(Oc2ccc(NC(=O)c3ccccc3C(=O)O)cn2)cc1` reads 15.3%.
For the compound `O=C(c1ccc(F)c(F)c1)N1CCC2(CC1)NCCc1[nH]cnc12`, the “hERG current change (%, negative = inhibition) at 10uM” value was found to be 10.3%.
The result for `COc1ccc(C2SCC(=O)N2c2ccc(OC)cc2)cc1` (stereo not shown) reads 12.8%; that for `COC(=O)c1ccc(CN2CCN(CCC(C)C)C(CCO)C2)cc1` (stereo not shown), -25.7%.
For `O=C(CN=C1NS(=O)(=O)c2ccccc21)OCC(=O)c1ccccc1`, the “hERG current change (%, negative = inhibition) at 10uM” value is -0.856%.
The result for `COc1cccc(-c2nnc(NC(=O)c3ccc(S(=O)(=O)N(CC(C)C)CC(C)C)cc3)o2)c1` reads 18.5%.
Regarding `CCOC(=O)C(O)(c1ccc(NC(=O)Oc2ccccc2)cc1)C(F)(F)F` (stereo not shown), the “hERG current change (%, negative = inhibition) at 10uM” value is on record as -3.78%.
For `Cc1nnc(SCC(=O)N(C)c2c(N)n(Cc3ccccc3)c(=O)[nH]c2=O)n1Cc1ccccc1`, the “hERG current change (%, negative = inhibition) at 10uM” value turned out to be 13.7%.
`Cc1c(C(=O)NCc2cccnc2)oc2ccc(S(=O)(=O)N3CC(C)CC(C)C3)cc12` (stereo not shown): the “hERG current change (%, negative = inhibition) at 10uM” value was found to be 6.69%.
The result for `CCOc1ccc2nc(N/C(N)=N/C(=S)Nc3ccc(OC)cc3)nc(C)c2c1` reads 13.7%.
Take `CSc1nc2ccccc2s1`: the “hERG current change (%, negative = inhibition) at 10uM” value was 9.72%.
As for `COCC1CCN(C(=O)c2ccc(OC)c(OC3CCN(C(C)C)CC3)c2)CC1`, the “hERG current change (%, negative = inhibition) at 10uM” value is 17.9%.
For the compound `O=C(NCc1ccc(Cl)cc1)C(=O)N/N=C/c1ccc(Br)cc1`, the “hERG current change (%, negative = inhibition) at 10uM” value is reported as 19.4%.
